Measured values from PubChem BioAssay AID1745853 (National Center for Advancing Translational Sciences (NCATS), 2022).
Some of the results follow. These are further read-outs of the screen, such as a control signal, another cell line or another target. No call is given for them.

Experiments:
Assay in all cases: Primary Screen for Target Class Profiling of Small Molecule Inhibitors of Methyltransferases
[1] = biological target: Glycine N-methyltransferase (Homo sapiens) (UniProt Q14749); conditions: purified enzyme, MTase-Glo SAH luminescence; measured here: GNMT inhibition; at 40 µM; stronger effect = lower value
Summary of the method: (§1)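 Each enzyme was reacted with SAM and its substrate, with compounds tested once at 40 uM; SAH formed was read by MTase-Glo luminescence.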

[2] = biological target: Guanidinoacetate N-methyltransferase (Homo sapiens) (UniProt Q14353); conditions: purified enzyme, MTase-Glo SAH luminescence; measured here: GAMT inhibition; at 40 µM; stronger effect = lower value
Summary of the method: as §1

[3] = biological target: Histamine N-methyltransferase (Homo sapiens) (UniProt P50135); conditions: purified enzyme, MTase-Glo SAH luminescence; measured here: HNMT inhibition; at 40 µM; stronger effect = lower value
Summary of the method: as §1

[4] = biological target: Nicotinamide N-methyltransferase (Homo sapiens) (UniProt P40261); conditions: purified enzyme, MTase-Glo SAH luminescence; measured here: NNMT inhibition; at 40 µM; stronger effect = lower value
Summary of the method: as §1

[5] = biological target: Phenylethanolamine N-methyltransferase (Homo sapiens) (UniProt P11086); conditions: purified enzyme, MTase-Glo SAH luminescence; measured here: PNMT inhibition; at 40 µM; stronger effect = lower value
Summary of the method: as §1
On the % scale 0 is the no-effect control and ±100 the full control effect.

Structure (SMILES)	activity change, negative = inhibition [1] [%]	activity change, negative = inhibition [2] [%]	activity change, negative = inhibition [3] [%]	activity change, negative = inhibition [4] [%]	activity change, negative = inhibition [5] [%]
Cc1nn(CC(=O)N2CCC3(CCCN(C)CC3)CC2)c(=O)c2ccccc12	-11.1	1.4	-5.06	-3.05	-1.95
c1ccc(COc2ccc(CN3CCN(C4CCNC4)CC3)cc2)cc1 (stereo not given)	-7.45	-11.5	-18.8	-10.8	-26.9
COC(=O)c1cc2n(n1)CC(C)(C(=O)NC1CCCCCC1)N(c1ccc(C)cc1)C2=O (stereo not given)	0.897	1.33	-9.87	4.92	1.95
O=C([C@@H]1CNC[C@H](C(=O)N2CCC(c3ccncn3)CC2)C1)N1CCCC1	-6.55	-4.61	-0.362	-13.3	-9.39
Cc1ccc(Cl)cc1N1CCN(S(=O)(=O)c2ccc3c(c2)n(C)c(=O)n3C)CC1	-3.8	2.3	3	-4.16	0.656
CNC(=O)[C@@H](CC(C)C)N1CCC[C@H]1C(=O)N[C@@H](CO)CC(C)C	-5.83	-8.77	-3.37	-10.8	4.18
CCCn1c(=O)c2ccc(C(=O)NCC(C)C)cc2n2c(=O)n(Cc3ccccc3)nc12	0.204	0.72	1.72	1.36	3.08
CCO[C@H]1CN(C2CCN(CCc3ccccc3)CC2)C[C@@H]1O	0.98	-1.22	-0.379	3.41	5.42
O=C(CCn1ccc2cc(S(=O)(=O)N3CCCC3)ccc21)NCc1ccccc1	-7.08	0	-0.185	-9.45	-6.71
COc1cc(CO)cc(OC)c1O[C@@H]1O[C@H](CO)[C@@H](O)[C@H](O)[C@H]1O	4.89	4.76	10.4	-7.66	8.47
COc1cccc([C@H]2Nc3ccc(S(=O)(=O)Nc4ccc(C)cc4C)cc3[C@H]3C=CC[C@H]32)c1	-14.2	-10.3	-18.4	-37.8	-16
CCCn1c(=O)c2ccc(C(=O)NC3CCCC3)cc2n2c(=O)n(CC(=O)c3ccc(C)cc3)nc12	-1.17	3.12	-3.27	-5.24	-1.82
Cc1cc(C)cc(NC(=O)CCc2nnc3n(CCCOC(C)C)c(=O)c4ccccc4n23)c1	-3.2	0	6.65	11.7	1.58
CCCN1C(=O)c2c(C(=O)Nc3ccc(CC)cc3)ncn2CC1(C)C(=O)NCc1ccccc1 (stereo not given)	-11.5	-0.564	-3.83	-3.85	-6.69
CC1=C(/C=C/C(C)=C/C=C/C(C)=C/C(=O)O)C(C)(C)CCC1	-12.1	8.68	4.45	-8.69	-0.441
O=C1NCc2ccccc2CC12CCN(Cc1ccc(F)cc1)CC2	-4.37	-6.37	-3.97	-10.6	-0.619
Cc1ccc(Cn2nc3n(Cc4ccc(C)cc4)c(=O)c4ccccc4n3c2=O)cc1	7.83	0	11.3	6.76	4.41
COc1ccccc1CCN1CCCC(CN(C)C(=O)Nc2ccccc2)C1 (stereo not given)	-2	0.157	-22.8	-6.56	-0.448
COc1ccc(-c2cc3n(n2)CC(C)(C(=O)NC2CCCCC2)N(C2CCCCCC2)C3=O)cc1 (stereo not given)	-2.36	2.4	2.56	1.02	-3.24

Structure (SMILES)	activity change, negative = inhibition [1] [%]	activity change, negative = inhibition [2] [%]	activity change, negative = inhibition [3] [%]	activity change, negative = inhibition [4] [%]	activity change, negative = inhibition [5] [%]
COC(=O)c1ncn2c1C(=O)N(c1ccc(C(C)C)cc1)C(C)(C(=O)NC1CCCCCC1)C2 (stereo not given)	5.64	1.62	6.64	7.67	3.48
CC(C)c1ccc(-n2cc(CN3CCN(C(=O)N(C)C)CC3)cn2)cc1	-7.09	-6.54	-1.75	-10.8	-4.32
CC1CCC2(C(=O)OC3OC(CO)C(O)C(O)C3O)CCC3(C(=O)O)C(=CCC4C5(C)CCC(OC6OC(C)C(O)C(O)C6O)C(C)(C)C5CCC43C)C2C1C (stereo not given)	-0.469	-4.3	2.53	-17.1	0.597
COc1ccc(N2C(=O)c3cc4sccc4n3CC2(C)C(=O)NC2CCCC(C)C2C)cc1OC (stereo not given)	0.317	0	6.36	6.82	2.35
CCCc1[nH]nc2c1C(c1cc(Cl)cc(Cl)c1O)C(C#N)=C(N)O2 (stereo not given)	-0.175	4.78	7.27	-34.4	-0.099
C=CCNc1nc(CC)nc2c1CCN(C(=O)c1cn(C)nc1C)CC2	-2.83	-9.74	-3.73	-10.3	6.31
O=C(NCc1ccccc1)c1ccc2c(=O)nc3c(-c4ccc(F)cc4)n[nH]n3c2c1	-12	4.07	-2.43	-9.88	-8.25
COc1ccc(OC)c(Nc2nc3c(S(=O)(=O)c4ccc(C)cc4)nnn3c3ccccc23)c1	-1.25	4.32	-0.955	7.46	-2.99
COc1ccc(-c2cc3n(n2)CC(C)(C(=O)NCc2ccccc2OC)N(c2cccc(OC)c2)C3=O)cc1 (stereo not given)	8.11	1.2	10.2	12.2	3.46
O=C(CCn1ccc2cc(S(=O)(=O)N3CCCCC3)ccc21)N1CCc2ccccc2C1	3.44	5.06	2.45	-3.92	-2.77
CCOC(=O)c1cc2n(n1)CC(C)(C(=O)NC1CCC(C)CC1)N(c1cccc(F)c1)C2=O (stereo not given)	1.25	0.916	-2.13	1.18	2.75
O=S(=O)(c1ccc2[nH]c3c(c2c1)CCCC3)N1CCc2ccccc21	2.16	3	3.95	0.218	1.27
CCc1ccc(-c2cc3n(n2)CC(C)(C(=O)NC2CCCCC2)N(CCCOC(C)C)C3=O)cc1 (stereo not given)	0.113	1.41	2.02	-2.35	-1.6
COc1ccc(C(=O)N[C@@H]2CN(c3ncccn3)C[C@H]2CN(C)C)cn1	-3.92	-12.4	-2.52	-10.1	-2.64
CCc1cc2c(cc3n2CC(C)(C(=O)NC2CCC(C)CC2)N(Cc2cccs2)C3=O)s1 (stereo not given)	1.47	0	2.03	-3.85	-0.876
CC(=O)N1CCC(C2CCN(C(=O)c3nn(C)c4ccccc34)C2)CC1 (stereo not given)	-8.97	-9.38	-3.44	-14.8	-6.43
CCCn1c(=O)c2ccc(C(=O)NC3CCCC3)cc2n2c(=O)n(Cc3ccc(Cl)cc3)nc12	2.96	0	4.45	2.72	-0.395
CCOc1ccc(N2C(=O)c3cc4ccccc4n3CC2(C)C(=O)NC2CCCCCC2)cc1 (stereo not given)	2.3	4.23	3	-1.93	-4.09
CC1(C)CC[C@]2(C(=O)O[C@@H]3O[C@H](CO)[C@@H](O)[C@H](O)[C@H]3O)CC[C@]3(C)C(=CCC4[C@@]5(C)C[C@@H](O)[C@H](O)[C@@](C)(CO)C5CC[C@]43C)C2[C@@H]1O (stereo not given in full)	-3.62	-9.05	0.553	-18.5	0.481
